The campaign covered roughly 390,000 compounds. About 17,000 (4.4%) were called active. The inconclusive results got no clear call from the source; some entries with a clear call stand among them for comparison. Calls come from the whole dose curve; as a rule, active = well fitted inhibition curve with a large enough effect; inconclusive = small, poorly fitted or top-dose-only effect; inactive = no such curve, though single readings can be large or run the other way. Where the call is inconclusive, the potency comes from a doubtful curve fit. The source holds several records for some structures; these can differ, active in one and inactive in another.
target: Lysine-specific demethylase 4A (Homo sapiens) (UniProt O75164); assay: qHTS Assay for Inhibitors of JMJD2A-Tudor Domain; settings: AlphaScreen JMJD2A-Tudor / H3K4me3 peptide binding; series mostly up to 114 µM; note: nearly all actives have a fitted effect of over 50% in size
Chain of UniProt O75164 (O75164 whole entry, looked up, the tested form may be a part): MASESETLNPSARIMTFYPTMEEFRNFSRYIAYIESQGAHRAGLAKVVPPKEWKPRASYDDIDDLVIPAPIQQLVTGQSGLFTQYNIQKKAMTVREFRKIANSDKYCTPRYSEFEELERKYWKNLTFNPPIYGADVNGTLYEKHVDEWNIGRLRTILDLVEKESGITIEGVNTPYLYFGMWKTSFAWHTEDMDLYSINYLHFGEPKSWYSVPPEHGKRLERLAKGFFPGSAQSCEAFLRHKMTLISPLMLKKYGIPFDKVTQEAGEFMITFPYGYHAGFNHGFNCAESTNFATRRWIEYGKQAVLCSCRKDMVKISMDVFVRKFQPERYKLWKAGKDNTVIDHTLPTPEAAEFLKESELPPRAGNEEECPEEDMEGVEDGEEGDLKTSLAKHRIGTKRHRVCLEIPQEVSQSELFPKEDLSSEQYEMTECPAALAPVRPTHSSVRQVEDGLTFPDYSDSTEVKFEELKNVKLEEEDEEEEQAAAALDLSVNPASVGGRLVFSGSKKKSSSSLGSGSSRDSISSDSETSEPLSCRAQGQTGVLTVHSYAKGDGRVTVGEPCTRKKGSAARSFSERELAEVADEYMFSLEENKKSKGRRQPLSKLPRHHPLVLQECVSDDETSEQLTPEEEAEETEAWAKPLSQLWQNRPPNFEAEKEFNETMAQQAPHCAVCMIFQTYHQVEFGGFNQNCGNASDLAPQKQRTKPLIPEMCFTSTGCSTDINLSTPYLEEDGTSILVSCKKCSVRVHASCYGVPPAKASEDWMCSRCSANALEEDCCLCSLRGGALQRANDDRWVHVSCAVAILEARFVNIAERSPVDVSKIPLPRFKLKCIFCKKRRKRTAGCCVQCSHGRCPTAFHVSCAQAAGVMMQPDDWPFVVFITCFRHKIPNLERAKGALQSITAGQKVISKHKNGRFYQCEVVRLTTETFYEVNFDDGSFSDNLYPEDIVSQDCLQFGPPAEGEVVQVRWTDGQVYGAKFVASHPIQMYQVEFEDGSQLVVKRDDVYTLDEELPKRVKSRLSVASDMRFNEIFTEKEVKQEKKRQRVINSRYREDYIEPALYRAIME
Potency is the fitted concentration of half-maximal effect; tags give direction and shape of the fitted curve.

Row | SMILES | Potency
1 | O=C(NCc1ccco1)c1cc2cc(Br)ccc2o1 | inconclusive: 50.1 µM [inhibitor, partial curve, poor fit]
2 | CCc1cnc2c(c1SC(C(C)=O)C(=O)N(C)C)c(=O)n(C)c(=O)n2C (stereo unspecified) | active: 28.2 µM
3 | O=[N+]([O-])c1ccc(-c2cnc(SCc3ccccc3Cl)[nH]2)cc1 | inconclusive: 56.2 µM [inhibitor, partial curve]
4 | COc1ccccc1C(=O)NNC(=O)c1ccc(NS(=O)(=O)c2cccs2)cc1 | inactive
5 | COc1ccc(Cc2nc3ccc(C(=O)N4CCCCC4CCO)cc3o2)cc1 (stereo unspecified) | inconclusive: 25.1 µM [inhibitor, single point]
6 | Cc1nc(SCCc2nc3ccccc3[nH]2)c2oc3ccccc3c2n1 | inconclusive: 79.4 µM [inhibitor, single point]
7 | Cc1cccc(-c2csc3ncnc(Sc4nnnn4C)c23)c1 | inactive
8 | Cc1nn(C(=O)CCC(=O)NCc2ccc(OC(C)C)cc2)c2ccccc12 | inactive
9 | O=C(OCCc1ccccc1)c1cc(O)c(O)c(O)c1 | inconclusive: 44.7 µM [inhibitor, partial curve]
10 | c1ccc(-c2cccc(-c3ccccn3)n2)nc1 | active: 20 µM
11 | COc1ccc(CCN2C(=O)CS/C2=N\NC(=O)c2ccc(C(C)(C)C)cc2)cc1OC | inactive
12 | COn1c(=S)[nH]c2ccccc2c1=O | active: 89.1 µM
13 | O=C(CN1C(=O)COc2ccccc21)NCCCN1CCCCC1 | inactive
14 | Cc1ccc(CNCC(=O)Nc2cccc(S(=O)(=O)NC3=NCCCCC3)c2)cc1 | active: 7.94 µM
15 | Cc1cc(NC(c2ccc(Cl)cc2)c2ccc3cccnc3c2O)no1 (stereo unspecified) | inconclusive: 56.2 µM [inhibitor, partial curve, poor fit]
16 | CCC1C/C(=C/c2cccs2)C(=O)/C(=C/c2cccs2)C1 (stereo unspecified) | inconclusive: 11.2 µM [inhibitor, full curve, poor fit]
17 | Cc1cccc(CN2CCc3c([nH]c4ccccc34)C2CC(C)C)n1 (stereo unspecified) | inconclusive: 79.4 µM [inhibitor, partial curve]
18 | C[C@H](CO)N1C[C@H](C)[C@@H](CN(C)C(=O)Nc2ccc3c(c2)OCO3)Oc2ccc(NC(=O)Nc3ccc(C(F)(F)F)cc3)cc2C1=O | inconclusive: 44.7 µM [inhibitor, partial curve]
19 | CCOc1ccc(NC(=O)c2c(NCc3cccs3)sc3c2CCC(C)C3)cc1 (stereo unspecified) | inconclusive: 56.2 µM [inhibitor, partial curve]
20 | Cc1cc(F)ccc1NCC(=O)Nc1ccc(Br)cc1C | inconclusive: 14.1 µM [inhibitor, partial curve]
21 | COc1ccc(N2CCN(CC(O)COc3c(OC)cccc3OC)CC2)cc1 (stereo unspecified) | active: 56.2 µM
22 | COc1ccc(-c2cnc(N)nc2-c2ccc(OCc3ccccc3)cc2O)cc1 | inconclusive: 14.1 µM [inhibitor, full curve, poor fit]
23 | CC1CCc2[nH]c3ccc(C(=O)N4CCCC(C(F)(F)F)C4)cc3c2C1 (stereo unspecified) | inconclusive: 28.2 µM [inhibitor, partial curve]

Row | SMILES | Potency
24 | CN(C)CCCOc1cccc(Oc2ccccc2)c1 | active: 56.2 µM
25 | CCOc1cc(/C=C2\N=C(SC(C)C(N)=O)N(c3ccc(OC(F)F)cc3)C2=O)ccc1O (stereo unspecified) | inconclusive: 56.2 µM [inhibitor, partial curve]
26 | O=[N+]([O-])c1ccc(NC(=S)NCCc2ccccc2)cc1 | inconclusive: 44.7 µM [inhibitor, partial curve]
27 | CC1=NN(c2ccc(Br)cc2)C(=O)/C1=C/c1ccc(-c2ccccc2C(=O)O)o1 | active: 31.6 µM
28 | Nc1ccc(Nc2ccccc2N)cc1 | active: 50.1 µM
29 | O=C(CSc1nc2ccccc2n1CCc1ccccc1)NC1CC1 | inactive
30 | CCS(=O)(=O)Nc1ccc(C2=NN(S(=O)(=O)c3ccc(F)cc3)C(c3ccco3)C2)cc1 (stereo unspecified) | inconclusive: 89.1 µM [inhibitor, partial curve]
31 | COc1cc(-c2nc(-c3ccncc3)no2)cc(OC)c1OC | inconclusive: 56.2 µM [inhibitor, partial curve]
32 | COc1ccccc1CNC(=O)C(NS(=O)(=O)c1ccc2c(c1)oc(=O)n2C)C(C)C (stereo unspecified) | inactive
33 | COc1ccc(NC(=O)CN(C)C(=O)c2cc(-c3ccco3)nc3ccccc23)cc1 | active: 14.1 µM
34 | Cn1cccc1/C=N/NC(=O)c1cc(-c2cccs2)nc2ccccc12 | inconclusive: 15.8 µM [inhibitor, full curve, poor fit]
35 | c1ccc([C@H]2CNCCN2CCc2cccc3ccccc23)cc1 | inconclusive: 56.2 µM [inhibitor, partial curve]
36 | C/C(Nc1ccccc1C(F)(F)F)=C1/CCOC1=O | inconclusive: 22.4 µM [inhibitor, partial curve]
37 | CCC/C(O)=C1\C(=O)CC(C)(C)CC1=Nc1ccccc1O | inconclusive: 14.1 µM [inhibitor, full curve]
38 | CCOC(=O)c1c(NC(=O)CN2C(=O)NC3(CCCCC3C)C2=O)sc(C)c1C (stereo unspecified) | inconclusive: 56.2 µM [inhibitor, partial curve]
39 | Cc1ccc2oc(-c3ccc(NC(=O)c4oc5ccc(Cl)cc5c4C)cc3)nc2c1 | inactive
40 | NC(=O)CSc1nnnn1CC(CC(=O)O)c1ccccc1 (stereo unspecified) | inconclusive: 4.47 µM [inhibitor, single point]
41 | COc1ccc(C(=O)N(Cc2ccccc2)c2ccc(C)cc2)cc1S(=O)(=O)N1CCOCC1 | inconclusive: 50.1 µM [inhibitor, partial curve]
42 | O=C1/C(=C\c2ccco2)NC(=S)N1c1ccccc1 | active: 56.2 µM
43 | COc1ccc(OC(=O)Nc2ccccc2)cc1 | inactive
44 | CCN(CC)CCn1c(NCc2ccc(C)o2)nc2ccccc21 | inconclusive: 39.8 µM [inhibitor, partial curve]
45 | CCN1C(=O)c2ccccc2S(=O)(=O)c2ccc(C(=O)NCc3ccccc3OC)cc21 | inactive
46 | O=C(NC(=S)Nc1ccccc1[N+](=O)[O-])c1ccccc1Cl | inconclusive: 39.8 µM [inhibitor, partial curve]

From PubChem BioAssay AID504339 (National Center for Advancing Translational Sciences (NCATS), 2011)
